In the supplement of paper PMC11383711:
This is one part of the list. Binding of human antibodies (heavy:light variable regions, tested as scFv in one mRNA-display pool) to influenza hemagglutinin, with or without the stem antibody CR9114 bound first. Score = (mean enrichment − median) / interquartile range of that screen; higher = more enriched, 0 = typical non-binder. Active = above the paper's cut-off per screen: stems 28; unblocked H1 Solomon Islands 5, H1 Michigan 3, H3 5, H5 19, H7 2.85, both B 5; blocked 9, 7, H5 10, H7 10, B Phuket 10, B Lee 11.5. Scores are scaled within each screen and are no affinities; replicates correlate at about 0.6 to 0.9, and antibodies rare in the pool are noisier.

Experiments:
[1] = target: H1 HA stem construct (mini-HA #4900); experiment: mRNA display binding score; higher = more enriched on the antigen; conditions: antigen blocked with: nothing
Experimental: (§1)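 A pool of natively paired antibodies, displayed as scFv on mRNA, was selected once on antigen-coated beads and sequenced before and after; two replicates.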

[2] = target: H3 HA stem construct (H3ssF); experiment: as above; conditions: antigen blocked with: nothing
Experimental: as §1

Row | Binder | mRNA display binding score [1] | mRNA display binding score [2]
1 | antibody 3E02 (protein) chain 1: VQLVESGGGVVQPGRSLRLSCATSGFIFSRYAIHWVRQAPGKGLEWVAVISNDGTKEECADSVKGRFTISRDNSKSTLYLQMNSLRAEDTAVYYCARDATQYGYETNWFFDSWGRGLLVTVSS chain 2: SYELTQPASVSVSPGQTANITCSGDKLGDKYTSWYQQKPGQAPVLVIYQDTKRPSGIPERFFGSSSGDAATLTISGTQAMDEADYYCQAWVWDSRVVFGGGTKLTVL | inactive: -0.045 | inactive: -0.448
2 | R95-2A05 (protein) chain 1: QVHLEQSGAEVKKPGASVKVSCKVSGHTLTELSMHWVRQAPGKGLEWVGGFDPEVGKPVYAQNFQGRITMTEDTIWDTAYMELSSLKSEDTAVYYCATGTRAGLPTPLYYYGMDFWGQGTPVTVSS chain 2: EIVMTQSPATLSVSPGERATLSCRASQGVSSDVVWYQQKPGQAPRPLIYGASTRATGVPGRFTASQSGTEFTLTISSLQSEDFAVYYCQQYNKWPLTFGGGTRVEL | inactive: -1.28 | inactive: -0.74
3 | R95-1A04 (protein) chain 1: LVQLQESGPGLVKPSETLSLTCTVSGYSINTGYYWGWIRQPPGKGLQWIGSIYYSGRTHYNPSLRSRVTIFLDTSKNQFSLKLRSVTAADTAVYYCARWWSSSGGSNWFDPWGQGTLVTVSS chain 2: SYELTQPPSVSVAPGQTARITCGGDNIESKSVHWYQQKPGQAPALVVYDDSDRPSGIPERYSGSNSGNTATLTISRVEAGDEADYYCQVWDGSGDQALVLFGGGTKLTVL | inactive: -0.87 | inactive: -0.172
4 | R95-1D06 (protein) chain 1: EVQLVESGGGLVKPGGSLRLSCAASGFTFRSYTMNWVRQAPGKGLEWVSSISTTLSFIYYADSVKGRFTISRDNAKNSLYLQMNSLRAEDTAVYYCARDLNSYGTVDYWGQGTLVTVSS chain 2: SYELTQPPSVSVAPGQTARIPCGGNNIGSRPVNWYQQKPGQAPVLVVYDDNDRPSGIPERFSGSNSGNTATLTISRVEAADEADFYCQVWDSSRDQSVLGGGTKLTVL | inactive: 0.128 | inactive: -0.614
5 | R95-1E05 (protein) chain 1: QVQLVQSGPEVKKPGSSVKVSCKASADTFSSYGFSWVRQAPGQGFEWMGGIIPAFGTTNYPQRFQDRVTITADESTRTVYMELSSLRSEDTAMFYCARDSPPWGDVNNNDAFDIWGQGTMVTVSS chain 2: DVVMTQSPLSLPVTLGQPASISCRSSQSLVYTDGNTYLNWFQQRPGQSPRRLIYKVSNRDSGVPDRFSGSGSGTDFTLKISRVEAEDVGVYYCMQATDWPSITFGQGTRLEIK | inactive: -0.939 | inactive: -0.753
6 | antibody 3D04 (protein) chain 1: EVQLVESGGGVVQPGRSLRLSCAPSGFTFDIYAMQWVRQAPGKGLEWVAFVSYDGSIKNYADSVKGRFTISRDKYLEMNSLRPEDTAVYFCARGRVAYCTTDCYHAFDIWGQGTMVTVSS chain 2: SYELTQPHSVSVAPGQTATITCGGDYIERKSVHWYQQKPGQAPVLVVYDDSDRPSGIPERLSGSNSGNTATLTISRVEGGDEADYYCQVWDSSCDCWVFGGGTKVTVL | inactive: -1.15 | inactive: 0.653
7 | R95-1G07 (protein) chain 1: EVQLVESGGGVVQPGRSLRLSCAASGFTFGSYAIHWVRQAPGKGLEWVAFDSNNKYYVDSVKGRFTTSRDNSKNTLYLQMDSLRAEDTAVYYCAREFQTYAFDYWGQGTLVTVST chain 2: SYELTQPPSVSVAPGQTARITCGGNNIGSKSVNWYQQKPGQAPVLVVYDDSDRPSGIPERFSGSNSGNTATLTISRVEAGDEADYHCQVWDSRSDHPVFGGGTKVTVL | inactive: -0.9 | inactive: -0.73
8 | 019-10-4A03 (protein) chain 1: EVQLVESGGGVVKPGGSLRLSCAASGIDFFNAWMSWVRQAPGKGLQWVGHIRSLTDGGTTDYAAPGKGRFTISRDDSQNTLYLQMESLRTDDTAVYYCTTDYGDYLNGGRWGQGTLVTVSS chain 2: DIVMTQSPLSLSVTPGEPASISCRSSQSLLRNNEFNYLDWYLQKPGQSPQVLIYFGSHRASGVPDRFSGSGSGTSFTLRINRVEAEDVGVYYCMQALQTPYTFGQGTKVEIK | inactive: 0.748 | inactive: 0.0127
9 | 100F4 (protein) chain 1: QLQLQESGLGLVKPSETLSLTCTVSGDSVSSGSYYWSWLRQPPGKGLEWIGNMHGSGHTNYNPSLKSRVTITPDTSKNHFSLRLSSVTAADTAVYYCARALLTTVTTFEYWGQGTLVTVSS chain 2: QSVLTQPPSVSGAPGQRVTISCTGGSSNIGAGYSVHWYQQLPGTAPKLLIYGSNSRPSGVPDRFSGSKSGTSASLAITGLRPEDEADYYCQSYDSSLSGSQVFGAGTRVTVL | inactive: -1.03 | inactive: -0.763
10 | W85-1H07 (protein) chain 1: EVQLVESGGGLVKPGGSLRLSCAASGFHFSGYSMNWVRQAPGKGLEWVASISGSVSDIHYADSVKGRFTISRDNARNSLYLQMTSLRAEDTALYYCVRDSYNWNDREFDPWGQGTLVTVSS chain 2: DIQMTQSPSSLSASVGDRVTFSCRASQSISIYLNWYQQKPGKAPKLLIYAASSLQTGVPSRFSGSGSGTDFTLSISSLQLEDFATYYCQQSYTTPPTFGQGTKVEVK | inactive: -0.426 | inactive: -0.445
